The test system of the assay is NCI-H322M lung. Nature of the assay: NCI-60 cell line screen, 48 h.

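These data come from cells grown in 96-well plates and exposed to compound for 48 hours at five concentrations. Abbreviation: GI50, concentration required for 50% inhibition of growth. TGI: concentration producing complete growth inhibition.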

As for `O=C(N/N=C/c1ccsc1)c1[nH]c2ccc(Br)cc2c1-c1ccccc1`, the GI50 was 1.08 µM and the TGI is 56.8 µM.

Source of the values: PubChem BioAssay (NCI).
